Target: the molecule itself
Assay: co-IP; trans: HA and c-myc tagged copies transfected into N2a cells in separate dishes, cells combined 4 h post-transfection and co-cultivated; lysis in 1% NP40 buffer; α-HA antibody beads; blot with α-c-myc

B1: APP∆CT, N-terminally HA tagged or N-terminally c-myc tagged (domain or fragment)
chain: not shown
notes: amyloid precursor protein, splice form APP695, stop codon after position 648 at the C-terminal end of the transmembrane domain; lacks the entire C-terminus; Two differently tagged copies: each chain carries either HA or c-myc, not both; also called Myc APP∆CT 648; HA APP∆CT 648; source: N2a, transiently transfected, in lysate (1% NP40); not shown: HA, N-terminal, kept; c-myc, N-terminal, kept
fold higher amount co-immunoprecipitated than APP WT: 1 fold higher
